This is an account of results in PubChem BioAssay AID485344 (National Center for Advancing Translational Sciences (NCATS), 2010).

In all, about 340,000 compounds went through this assay and about 6,900 (2%) were called active. No stated cut-off is given here; in the data, active means inhibition above about 30%; inactive means below that, where a call was filed. Only a part is listed here, and it is no random draw. The source gives no active or inactive call for entries shown without one.

UniProt P14416, sequence (P14416 whole entry, looked up): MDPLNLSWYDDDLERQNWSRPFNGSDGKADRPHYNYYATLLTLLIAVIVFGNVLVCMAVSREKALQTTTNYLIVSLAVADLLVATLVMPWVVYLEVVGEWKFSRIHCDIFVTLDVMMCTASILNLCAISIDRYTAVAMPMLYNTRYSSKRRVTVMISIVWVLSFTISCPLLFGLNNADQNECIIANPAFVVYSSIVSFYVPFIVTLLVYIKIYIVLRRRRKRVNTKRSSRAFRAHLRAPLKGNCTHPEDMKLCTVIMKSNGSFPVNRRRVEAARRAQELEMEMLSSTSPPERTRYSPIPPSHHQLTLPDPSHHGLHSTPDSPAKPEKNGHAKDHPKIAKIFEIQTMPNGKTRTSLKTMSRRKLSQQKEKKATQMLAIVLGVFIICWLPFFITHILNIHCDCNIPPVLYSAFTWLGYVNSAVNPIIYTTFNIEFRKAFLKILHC

The assay has as its target D(2) dopamine receptor (Homo sapiens) (UniProt P14416). Briefly: HTS Assay for Allosteric Antagonists of the Human D2 Dopamine Receptor: Primary Screen for Antagonists. Further: 0% is about no effect. The note with it: HEK293 TREx D2 cells, calcium flux, dopamine EC80; at 10 µM; stronger effect = higher value. Summed up:
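Inhibition of EC80 dopamine-driven calcium flux, recorded kinetically, defines activity here; cells are a tetracycline-induced HEK293 T-REx line expressing force-coupled D2.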
A general note: Calcium flux is commonly read through the fluorescence of an indicator in the cells.
Usually inhibition stands for the drop in the measured response relative to a control, in per cent. As for `Cc1ccc(NC(=O)NCc2ccc3c(c2)CCN3C(=O)c2ccccc2)c(Cl)c1`, the inhibition was 18%.
For `Cc1ccc(NC(=O)CN(c2ccccc2)S(=O)(=O)N(C)C)cc1Cl` the value was 13.2%; for `CN(Cc1ccccc1)C(=O)CN1C(=O)CSc2ccc(S(=O)(=O)N3CCOCC3)cc21`, -28.1%.
With `COc1ccc(OC)c(S(=O)(=O)Nc2cc3c(cc2C)n(C)c(=O)c(=O)n3C)c1` the figure was 10.6%.
For `COc1ccc(N(C(=O)/C=C\C(=O)Nc2ccc(Cl)cc2)C(C(=O)NCc2ccco2)c2ccc(C)cc2)cc1` (centres undefined) the value was -7.97%.
With `COc1ccc(NC(=O)CCS(=O)(=O)c2nc(-c3cccs3)cc(C(F)(F)F)n2)cc1OC`, the inhibition is -1.74%.
For `O=C(c1noc2c1CCCCC2)N1CCN(c2ccc(Cl)cc2)CC1` the value was 1.31%; for `COc1ccccc1NC(=O)Cn1c(=O)n(Cc2ccc3c(c2)OCO3)c(=O)c2oc3ccccc3c21`, 2.55%.
Regarding `Cc1ccc(S(=O)(=O)c2nc(-c3cccs3)oc2N2CCCCC2)cc1`, the inhibition was -21.3%.
Consider `CC(C)OP(=O)(c1ccc(N(C)C)cc1)C(O)c1ccncc1` (centres undefined), for which the inhibition was active: 31.7%.
For the compound `Cc1ccc(-n2ncc(C(=O)NCCN3CCN(C)CC3)c2C2CCN(C(=O)OC(C)(C)C)CC2)c(C)c1`, the inhibition was -5.4%.
For `CC(=O)c1cccc(NS(=O)(=O)c2ccc3[nH]c4c(c3c2)CCCCCC4)c1` the value was 4.01%; for `COc1ccccc1N1CCN(C2CCCN(Cc3cccc(O)c3)C2)CC1` (centres undefined), active: 48.6%; for `COc1cccc(N2CC(NC(=O)Cc3cccs3)CC2=O)c1` (centres undefined), 12.6%.
For `Cc1ccc2c(c1)c1c(c(=O)n(-c3ccccc3)c(=O)n1CC(=O)N1CCCC1)n2C`, the inhibition was 21.3%.
For `CCOc1ccc(OCC)c(Nc2nc3ccccc3c3nnc(C)n23)c1` the value was -6.46%; for `CCn1cc(C(=O)NCCc2ccc(C)cc2)c(=O)c2cc(S(=O)(=O)N(C)C)ccc21`, 11.8%; for `CN1C(=O)CC(=O)N(C)c2cc(S(=O)(=O)N(C)Cc3ccccc3)ccc21`, 18.8%.
As to `Cc1cc(C)c(Cn2c3ccccc3c3cnn(CC(=O)N4CCCCC4)c(=O)c32)c(C)c1`, the inhibition is -3.29%.
For `CCCCN(CCCC)CCNC(=O)c1cn(C)c2ccc(S(=O)(=O)N3CCOCC3)cc2c1=O` the value was -9.11%; for `CN(C(=O)c1ccc(Br)o1)C1CCS(=O)(=O)C1` (centres undefined), active: 37.2%.
In the case of `Cc1c(Cl)cccc1NS(=O)(=O)c1ccc2[nH]cc(C(=O)NC3CCCC3)c(=O)c2c1`, the inhibition came to 0.848%.
With `COc1cc(C(C)=O)ccc1OCC(O)CN1CCN(c2ccccc2)CC1` (centres undefined), the inhibition is active: 85.2%.
Turning to `CCOC(=O)C1CCC(CN(Cc2ccccc2)S(=O)(=O)c2ccc(Cl)cc2)CC1` (centres undefined), the inhibition was -11.9%.
As for `CCOc1ccc(-n2c(-c3ccc(C)cc3)nc3c(cnn3-c3ccccc3)c2=O)cc1`, the inhibition is -0.357%.
Regarding `Cc1ccc(NC(=O)CCn2c(=O)c3cccn3c3ccccc32)c(Cl)c1`, the inhibition was -24.1%.
With `CCOC(=O)c1c(S(=O)(=O)N2CCC(C(=O)Nc3ccccc3OC)CC2)c(C)n(CC)c1C` the figure was 20.4%.
For `COc1ccc(CCNC(=O)Cn2cc(C(=O)c3ccccc3)c(=O)c3ccc(C)nc32)cc1OC` the value was 9.47%; for `O=S(=O)(c1ccc(Br)cc1)c1nc(-c2ccco2)oc1SCc1ccccc1Cl`, -5.12%; for `Cc1ccc(CCNC(=O)c2nn(C)c3c2CSc2ccccc2-3)cc1`, 19.7%.
Consider `CCCCOc1ccc(CNC(=O)CN2CCSc3ccccc32)cc1`, for which the inhibition came out at 7.77%.
As to `COc1ccc(-n2nc(C(=O)N(C)c3cccc(C(F)(F)F)c3)c3c4ccccc4n(C)c3c2=O)cc1`, the inhibition is 11.7%.
Take `Cn1c(N)c(C(=O)CSc2nnc(-c3ccccc3F)n2N)c(=O)n(C)c1=O`: the inhibition was active: 33.7%.
As for `Cc1nc2nc(NC(=O)c3cccc(Cl)c3)[nH]n2c(=O)c1Cc1ccccc1`, the inhibition was found to be 7.99%.
As to `CCn1nnc2cc(C(=O)Nc3cccc(Cl)c3)ccc21`, the inhibition amounted to 4.02%.
In the case of `CCCNC(=O)C1CCC(Cn2c(=O)c3sccc3n(Cc3cccc(OC)c3)c2=O)CC1` (centres undefined), the inhibition was -3.98%.
For `CCC(C(=O)N1CCN(c2cccc(C)c2C)CC1)n1nc(C)c2sc3ccccc3c2c1=O` (centres undefined) the value was -13.9%.
For `COc1ccccc1N1CCN(C(=O)c2coc(=O)c(Br)c2)CC1`, the inhibition is active: 42.8%.
Take `CCN(Cc1ccccc1)C(=O)CCc1c(C)nc2c(c(C)nn2-c2ccc(C)c(C)c2)c1C`: the inhibition is 0.653%.
On to `Cc1ccc(NC(=O)c2oc3ccc(S(=O)(=O)N4CCCCC4)cc3c2C)cc1Cl`, for which the inhibition was -22%.
With `CC(C)(CO)Nc1nc(N2CCCC2)nc(N2CCCC2)n1`, the inhibition was active: 46.9%.
Regarding `CCc1cccc(C)c1NC(=O)Cn1cc2c(n1)CCCC2`, the inhibition was 5.86%.
In the case of `Cn1c(=O)c2c(-c3ccc(Br)cc3)n(CCc3ccccc3)cc2n(C)c1=O`, the inhibition is 8.09%.
Consider `CCN1C(C(=O)c2ccccc2)=C(OC(=O)c2ccc(OC)cc2)c2ccccc2S1(=O)=O`, for which the inhibition was determined as 3.36%.
For `O=C(Nc1ccc2c(c1)OCO2)c1cc(-c2ccc(Br)cc2)on1` the value was -1.94%; for `CCCN1CCC(=O)N([C@H](CN=[N+]=[N-])Cc2ccccc2)CC1`, active: 37.5%; for `Cc1ccccc1C(=O)Nc1nc2nc(-c3ccccc3)cc(=O)n2[nH]1`, 18.2%.
Turning to `Clc1cccc(-n2cc(-c3ccccc3)c3c(N4CCCCC4)ncnc32)c1`, the inhibition came to 19.9%.
On to `CCC(c1nnnn1Cc1ccc2c(c1)OCO2)N1CCN(c2ccccc2)CC1` (centres undefined), for which the inhibition was active: 78.7%.
For `Cc1ccc(NC(=O)Nc2nnc(N(C)C3CCCCC3)s2)c(Cl)c1` the value was 6.98%; for `Cc1cc(C)c(/C=C/c2onc(C)c2S(=O)(=O)N2CCC(C(=O)N(C)Cc3ccccc3)CC2)c(C)c1`, -0.961%; for `Cc1ccc(-n2c(=O)c3c4c(sc3n(Cc3ccccc3C)c2=O)CCC4)cc1C`, -5.38%.
In the case of `Cc1ccccc1NC(=O)c1ccc(Cn2cc([N+](=O)[O-])cn2)o1`, the inhibition was active: 32.1%.
As to `COc1ccc(S(=O)(=O)NCC(c2ccc(N(C)C)cc2)N2CCCC2)cc1` (centres undefined), the inhibition stood at 11.5%.
In the case of `CCOC(=O)c1c(NC(=O)COc2c(C)cc(Cl)cc2Cl)sc2c1CCCC2`, the inhibition is -9.69%.
With `COc1ccc(-c2noc(CC(=O)Nc3ccc(Br)cc3C)n2)cc1`, the inhibition was -2.15%.
For `COc1cccc(CNC(=O)c2oc3c(c2C)-c2nn(Cc4cccc(Cl)c4)cc2CC3)c1` the value was -6.45%.
For `Cc1ccc(NC(=O)CCNS(=O)(=O)c2cccc3nonc23)cc1` the value was active: 30.5%; for `COc1ccc(C2c3c(oc4ccc(C)cc4c3=O)C(=O)N2CCCN2CCOCC2)cc1OC` (centres undefined), -8%; for `COc1ccc(NC(=O)C2=CC(c3ccc4c(c3)OCO4)=NS(=O)(=O)N2C)cc1`, 2.4%.
With `CCC(C)(C)NC(=O)C1CCN(S(=O)(=O)c2c(C)noc2/C=C/c2ccc(C)cc2)CC1` the figure was 11.6%; with `Fc1ccc(-n2cc(-c3ccccc3)c3c(NCCc4ccccc4)ncnc32)cc1`, 13.1%; with `COc1ccc(C)cc1NC(=O)C1COc2ccccc2C1` (centres undefined), 1.49%.
On to `CCc1ccc(NC(=O)Cn2c(=O)n(CCCCC(=O)NCCc3ccccc3)c(=O)c3ccccc32)cc1`, for which the inhibition amounted to 7.66%.
Regarding `CCOc1ccc(OCC)c(NS(=O)(=O)c2c(C(=O)N3CCCCCC3)c(C)n(C)c2C)c1`, the inhibition was determined as 5.35%.
For the compound `O=C(CSc1nnc(-c2ccccc2)c(-c2ccccc2)n1)NC1CCCC1`, the inhibition is -2.22%.
For `CCOc1ccc(C(=O)c2cn(CC(=O)Nc3ccc(F)cc3)c3cc4c(cc3c2=O)OCCO4)cc1` the value was 1.27%; for `O=C(NCCCO)C(=O)NCC(c1ccc2c(c1)OCO2)N1CCOCC1` (centres undefined), 22.9%; for `Cc1ccc(OCCn2c(CCNC(=O)C3CCCCC3)nc3ccccc32)cc1`, -8.5%.
With `Cc1ccc2c(=O)cc(C(=O)Nc3ccc(S(=O)(=O)N(C)Cc4ccccc4)cc3)oc2c1C` the figure was -3.9%; with `c1csc(-c2nnc(NC3CCCCC3)c3ccccc23)c1`, active: 43.2%.
For `COc1cccc(C(=O)NCc2cn3ccccc3n2)c1`, the inhibition is 5.51%.
In the case of `Cc1ccc(-c2nnn(CC(=O)NCCc3ccc4c(c3)OCO4)n2)cc1`, the inhibition is active: 30.9%.
For the compound `CCOc1cc(C2CC(=O)Nc3cc4c(cc32)OCCO4)ccc1O` (centres undefined), the inhibition stood at 6.39%.
For `COC(=O)C(C)Sc1nc2c(cnn2-c2ccc(F)cc2)c(=O)[nH]1` (centres undefined), the inhibition was -19.5%.
With `CCOc1ccccc1NS(=O)(=O)c1ccc2c(c1)CC(C)N2C(=O)C1CCC1` (centres undefined), the inhibition came to 3.73%.
Consider `COc1ccc(NCc2cc3cc4c(cc3n(CC(=O)Nc3ccc(F)cc3)c2=O)OCCO4)cc1`, for which the inhibition was -1.5%.
Consider `COc1cccc(C(=O)N(Cc2cccnc2)c2nc3c(OC)ccc(C)c3s2)c1OC`, for which the inhibition was found to be 2.17%.
On to `O=C(CSc1nc2ccccc2nc1Cc1ccc(Cl)cc1)N1CCCc2ccccc21`, for which the inhibition stood at 3.96%.
Consider `COc1cccc(Cn2c(CNC(=O)CCc3ccccc3)nc3cccnc32)c1`, for which the inhibition is -7.75%.
With `Cc1ccc(NC(=O)C(=O)NCCc2sc(-c3ccc(Cl)cc3)nc2C)cc1C`, the inhibition was determined as 16%.
For the compound `Cc1ccc(S(=O)(=O)NCCc2csc(-c3ccc(Cl)cc3)n2)cc1`, the inhibition turned out to be 16%.
Regarding `Cc1c(Cl)cccc1NC(=O)CCS(=O)(=O)c1ccc2c(c1)oc(=O)n2C`, the inhibition came out at 5.34%.
Regarding `COc1cccc(CNC(=O)CCn2nc(C)c3c(C)n(-c4ccccc4)nc3c2=O)c1`, the inhibition stood at 3.55%.
With `Cc1nc2ccccc2n2c(-c3ccccc3)c3c(=O)n(C)c(=O)n(C)c3c12`, the inhibition was -15.1%.
For `CCOC(=O)Cn1c(=O)n(C2CCCCC2)c2nc(-c3ccc(CC)cc3)nc(C(N)=O)c21` the value was 0.716%; for `Cc1cc(C)cc(NC(=O)Cn2c(=O)n(-c3cc(C)cc(C)c3)c(=O)c3oc4ccccc4c32)c1`, 13.8%.
As for `Cn1nc(C(=O)NCc2cccc(Cl)c2)c2c1-c1ccccc1S(=O)(=O)C2`, the inhibition was found to be 18.5%.
For `C=CCC1c2cccc(C(=O)O)c2C(=O)N1c1cccc(C)c1` (centres undefined), the inhibition was active: 32.2%.
Turning to `Cc1ccccc1N(C)S(=O)(=O)c1nnc(NC(=O)c2ccccc2F)s1`, the inhibition worked out at 5.66%.
For `COc1cc(CN2CCc3nc(N4CCN(c5ncccn5)CC4)ncc3C2)cc(OC)c1OC` the value was 0.816%; for `Cn1ncc2c(NCc3ccccc3Cl)nc(NCCO)nc21`, 14%; for `COc1ccc2c(c1)c1c(c(=O)n(-c3ccccc3)c(=O)n1CC(=O)NCCC1=CCCCC1)n2C`, -1.35%.
In the case of `O=C(Nc1ccc(-n2nncc2-c2ccccc2)cc1)c1cccc(F)c1`, the inhibition worked out at 20.8%.
